The results in this text go back to PubChem BioAssay AID1688 (National Center for Advancing Translational Sciences (NCATS), 2009).

The whole screen tested about 220,000 compounds, of which about 2,400 (1.1%) were called active. About 7% were inconclusive and are not listed. Calls follow the shape of the dose curve; as a rule, active = well fitted inhibition curve with a large enough effect; inconclusive = small, poorly fitted or top-dose-only effect, or effect the other way; inactive = no such curve, though single readings can be large or run the other way. The entries are a selection whose mix differs from that of the whole data set.
% is scaled to controls: 0 for no effect and ±100 for the full control effect; potency is read from the fitted curve at half-maximal effect.

This test in a line: qHTS Multiplex Assay to Identify Dual Action Probes in a Cell Model of Huntington: Aggregate Formation (GFP). Also: nearly all actives have a fitted effect of over 60% in size. The conditions noted are these: PC12 HttQ103-GFP aggregates, Acumen cytometry, 40 h; series mostly up to 46.1 µM; activity change, negative = inhibition: at the top concentration. The essentials:
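Multiplexed with ATP-based cell death, this channel scores GFP aggregates in PC12 cells expressing inducible HTTex1-Q103-GFP. Induction used 100 nM tebufenozide; compounds were tested in concentration series.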
On the technique in general: qHTS replaces the single test concentration by a dilution series.
As to `CC[C@]1(O)CC2CN(CCc3c([nH]c4ccccc34)[C@@](C(=O)OC)(c3cc4c(cc3OC)N(C=O)[C@H]3[C@@](O)(C(=O)OC)[C@H](OC(C)=O)[C@]5(CC)C=CCN6CC[C@]43[C@@H]65)C2)C1` (stereo partly specified), the activity change, negative = inhibition is inactive: -33% [at 9.22 µM]. For the molecule `CNCCC=C1c2ccccc2CCc2ccccc21`, the “activity change, negative = inhibition” value was inactive: -4.31%. On the same count and under the same terms, with `NC(=O)c1ncn([C@@H]2O[C@H](CO)[C@@H](O)[C@H]2O)c1O` the figure was inactive: 2.24%.

For the molecule `O=C1CC(N2CCN(c3ccc(Cl)c(Cl)c3)CC2)C(=O)N1` (stereo unspecified), the Potency is active: 25.1 µM. `Cc1csc(Nc2ccccc2)[n+]1C`: the “activity change, negative = inhibition” value was inactive: -11.3%. As for `CN(C)c1cccc(NC2=CC(=[N+]3CCOCC3)CC(C)(C)C2)c1`, the “activity change, negative = inhibition” value was inactive: 3.48%. Same read-out and setting: with `COC(C[C@H]1O[C@H]1[C@@H](O)[C@H](C)OCc1ccccc1)OC` the figure was inactive: 28.1% [at 9.22 µM]; with `C=CCc1cc(OC)ccc1OCC(O)CN1CCN(c2ccc(OC)cc2)CC1` (stereo unspecified), inactive: -5.71%; with `CCN1C(=O)/C(=C\c2nc3ccccc3c(=O)n2-c2ccccc2)c2ccccc21`, inactive: 13.7%. Same read-out and setting: under `CC(=O)Oc1cccc2c1C(=O)c1c(OC(C)=O)cc(C(=O)O)cc1C2=O` stands inactive: 13.7%. On the same count and under the same terms, under `CN(C)C(=N)N=C(N)N` stands inactive: 32.2% [at 20.6 µM].

`Cc1[nH]c2ccccc2c1C(=O)/C=C\c1ccccc1Cl`: the “activity change, negative = inhibition” value was inactive: 30.7%. Still for that read-out and setting: with `O=C1NC(=O)/C(=C/c2ccccc2OCc2ccccc2)S1` the figure was inactive: -4.83%; with `COc1ccc2c(c1)C(=O)[C@@H](O)[C@H](c1ccc(OC)c(Br)c1)O2`, inactive: -18.7%; with `O=C1S/C(=C\c2ccccc2)C(=O)N1CC(O)Cn1c2ccccc2c2ccccc21` (stereo unspecified), inactive: 13.5%. Turning to `Cc1ccc(NS(=O)(=O)c2ccc(Cl)c(C(=O)Nc3ccccc3-c3nc4ccccc4[nH]3)c2)cc1C`, the Potency is active: 11.2 µM. Regarding `COC(C[C@H]1O[C@@H]1[C@H](O)COCc1ccccc1)OC`, the activity change, negative = inhibition is inactive: 15% [at 9.22 µM]. As to `Cc1cc(/C=C2/SC(=S)N(c3ccc([N+](=O)[O-])cc3)C2=O)c(C)n1-c1cccnc1`, the Potency was active: 3.98 µM.

For `COc1ccc(Cc2nnc(N/N=C/c3ccccc3O)[nH]c2=O)cc1OC`, the Potency is active: 1.26 µM.

As to `CCC(=O)N1CCc2cc(S(=O)(=O)Nc3ccc4c(c3)OCCO4)ccc21`, the Potency is active: 7.94 µM. On the same count and under the same terms, with `Cc1ccccc1NCC(=O)N/N=C\c1ccc([N+](=O)[O-])s1` the figure was active: 11.2 µM.

Take `CCOC(=O)/C(C#N)=C/c1ccc(OC)c(OC)c1`: the “activity change, negative = inhibition” value is inactive: -0.605%.

Consider `CC(NCCC(c1ccccc1)c1ccccc1)c1ccccc1` (stereo unspecified), for which the “activity change, negative = inhibition” value was inactive: -26.4%. With `COc1ccc(C/C(O)=C(\C#N)c2nc3ccccc3s2)cc1`, the Potency is active: 12.6 µM.

For `Cc1ccc(C(=O)N/C(=C/C=C/c2ccccc2)C(=O)NCc2ccco2)cc1`, the “activity change, negative = inhibition” value is inactive: -22%. Same read-out and setting: under `CCO/C=C1\C(=O)N(CC)c2ccccc21` stands inactive: -28.8%.
